Data as given in PubChem BioAssay AID485344 (National Center for Advancing Translational Sciences (NCATS), 2010).
About 6,900 (2%) of roughly 340,000 compounds were called active. Rule as the data show it: active = inhibition above about 30%; inactive = below that, where a call was filed. Only a part is listed here, and it is no random draw. Where no call is shown, the source filed none.

Molecular target: D(2) dopamine receptor (Homo sapiens) (UniProt P14416)
Test: HTS Assay for Allosteric Antagonists of the Human D2 Dopamine Receptor: Primary Screen for Antagonists; also: 0% is about no effect
Settings: HEK293 TREx D2 cells, calcium flux, dopamine EC80; at 10 µM; stronger effect = higher value
How it was run: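 Measurement of antagonist activity uses fluorescent calcium dye in inducible HEK293 T-REx D2 cells: 10 s baseline, compound addition with 180 s read, EC80 dopamine addition with a further 180 s read.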

UniProt P14416, sequence (P14416 whole entry, looked up): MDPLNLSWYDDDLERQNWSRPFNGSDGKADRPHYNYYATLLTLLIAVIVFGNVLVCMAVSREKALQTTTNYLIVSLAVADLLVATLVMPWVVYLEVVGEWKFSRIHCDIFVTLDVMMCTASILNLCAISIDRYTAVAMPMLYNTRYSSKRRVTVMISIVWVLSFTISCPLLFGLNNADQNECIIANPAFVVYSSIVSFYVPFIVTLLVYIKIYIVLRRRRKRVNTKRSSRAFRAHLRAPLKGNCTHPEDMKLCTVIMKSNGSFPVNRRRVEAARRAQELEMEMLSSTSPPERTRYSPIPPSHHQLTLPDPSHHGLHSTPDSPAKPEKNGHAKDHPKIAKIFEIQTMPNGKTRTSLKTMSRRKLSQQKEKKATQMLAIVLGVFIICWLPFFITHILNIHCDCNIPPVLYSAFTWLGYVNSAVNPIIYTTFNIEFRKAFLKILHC

Structure (SMILES)	inhibition
CC(=O)c1cccc(NC(=O)Cn2cc(C(=O)c3cccc(Cl)c3)c(=O)c3ccc(C)nc32)c1	-20.9%
Cc1ccc(C(=O)N2CCOCC2)cc1S(=O)(=O)Nc1cccc(C)c1C	active: 41.6%
COc1ccc(NS(=O)(=O)c2ccc(C)c(NC(=O)NC3CCCCC3)c2)cc1	active: 33.5%
Cc1ccc2nc3c(cc(C(=O)NCc4ccco4)c(=N)n3C(C)C)c(=O)n2c1	5.57%
CC(NC(=O)CSc1nc(-c2ccccc2F)nc2cc(=O)[nH]n12)c1nc2ccccc2n1C (configuration not stated)	-1.85%
Cc1ccc(CNC(=O)Cn2ccn(-c3ccc(F)cc3)c(=O)c2=O)cc1	-21.4%
O=C(Nc1ccc(N2CCOCC2)c(C(=O)O)c1)c1ccc(Br)cc1	-8.42%
Cc1cccc(CN2C(=O)c3ccccc3S(=O)(=O)c3ccc(C(=O)NC4CCCCC4)cc32)c1	5.29%
COc1ccc(NC(=O)c2cc3c(=O)n(Cc4cccnc4)ccc3nc2C)c(OC)c1	-4.6%
CCOC(=O)Cc1ccc2sc(-c3ccccc3)nc2c1	active: 32.2%
COc1ccc(OCC(=O)NC(Cc2c[nH]c3ccccc23)C(=O)O)cc1 (configuration not stated)	-9.8%
C/C=C(\C)CN1CCN(c2cccc(C)c2C)CC1	active: 85%
CCc1nnc(SC(CC)C(=O)Nc2cc(C)ccc2C)c2cc3occc3n12 (configuration not stated)	1.06%
CC1CCN(CCCNC(=O)CN2C(=O)CSc3ccc(S(=O)(=O)N4CCOCC4)cc32)CC1	22.4%
COc1cc(C2c3c(oc4ccccc4c3=O)C(=O)N2Cc2ccc(C)cc2)ccc1O (configuration not stated)	17.2%
Cc1ccc(C)c(NS(=O)(=O)c2ccc3oc(=O)c4ncn(C)c4c3c2)c1	3.65%
CCn1c(=O)c2cc(C(=O)NCCc3ccc(Cl)cc3)sc2c2ccccc21	7.04%
COc1cc(/C=N/N2C(=O)CSC2=S)cc(Br)c1O	active: 43.6%
Cc1ccc(N(C)C(=O)C2CCN(S(=O)(=O)c3cn(C)cn3)CC2)cc1	0.181%
CCn1c(=O)c2sccc2n2c(CCC(=O)Nc3ccc(C(C)C)cc3)nnc12	1.2%
COc1cccc(NC(=O)c2c(C(=O)Nc3ccccc3)sc3nc(C)cc(=O)n23)c1	-28.6%
CCOc1ccc(/C=C/C(=O)Nc2sc3c(c2C(=O)OC)CCC3)cc1	11.7%
O=S(=O)(c1ccccc1)c1nc(-c2ccc(F)cc2)oc1N1CCCCCC1	-10.3%
CCc1ccc(NC(=O)CSc2nc3ncccc3[nH]2)cc1	-9.79%
Cc1ccc(C)c(CNC(=O)c2cnc3sc(N4CCCC4)nn3c2=O)c1	-5.14%
Cc1cc(C(=O)NC2CCN(Cc3ccccc3)CC2)n[nH]1	active: 74.1%
CCOc1ccc(C(=O)c2cn(Cc3ccc(F)cc3)c3ccc(F)cc3c2=O)cc1	-13.2%
